# This is one part of the list.
# B1: Gal 8 (Mus musculus), Q9JL15 (protein)
# chain: MGGSHHHHHHGMASMLSLNNLQNIIYNPIIPYVGTITEQLKPGSLIVIRGHVPKDSERFQVDFQLGNSLKPRADVAFHFNPHFKRSSCIVCNTLTQEKWGWEEITYDMPFRKEKSFEIVFMVLKNKFQVAVNGRHVLLYAHRISPEQIDTVGIYGKVNIHSIGFRFSSASALPHTLGDLQSMETSALGLTQINRENIQKPGKLQLSLPFEARLNASMGPGRTVVIKGEVNTNARSFNVDLVAGKTRDIALHLNPHLNVKAFVRNSFLQDAWGEEERNITCFPFSSGMYFEMIIYCDVREFKVAINGVHSLEYKHRFKDLSSIDTLSVDGDIRLLDVRSW
# Legend:
# Experiment in all cases: glycan array binding signal (z-score within array); higher = stronger binding
# Conditions in all cases: glycan notation: IUPAC condensed, linker removed; mutation: R82H, R255H
# [1] = target: GlcNAc(a1-6)Gal(b1-4)GlcNAc
# Outline: (§1)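 Glycan array binding is given as a within-array Z-score, which can be read as non-binding when negative. The arrays, 3228 of them, came from the Consortium for Functional Glycomics database and were retained only where the protein sequence was available. Z-scores were averaged across arrays of the same protein sequence at different concentrations or buffers and across linkers.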
# [2] = target: GlcNAc(b1-2)Gal(b1-3)GalNAc
# Outline: as §1
# [3] = target: GlcNAc(b1-2)Man(a1-3)[GlcNAc(b1-2)Man(a1-6)]Man(b1-4)GlcNAc(b1-4)GlcNAc
# Outline: as §1
# [4] = target: GlcNAc(b1-2)Man(a1-3)[GlcNAc(b1-2)Man(a1-6)]Man(b1-4)GlcNAc(b1-4)[Fuc(a1-6)]GlcNAc
# Outline: as §1
# [5] = target: GlcNAc(b1-2)Man(a1-3)[GlcNAc(b1-4)][GlcNAc(b1-2)Man(a1-6)]Man(b1-4)GlcNAc(b1-4)GlcNAc
# Outline: as §1
# [6] = target: GlcNAc(b1-2)Man(a1-3)[GlcNAc(b1-4)][GlcNAc(b1-2)Man(a1-6)]Man(b1-4)GlcNAc(b1-4)[Fuc(a1-6)]GlcNAc
# Outline: as §1
# [7] = target: GlcNAc(b1-2)[GlcNAc(b1-4)]Man(a1-3)[GlcNAc(b1-2)Man(a1-6)]Man(b1-4)GlcNAc(b1-4)GlcNAc
# Outline: as §1
# [8] = target: GlcNAc(b1-2)[GlcNAc(b1-4)]Man(a1-3)[GlcNAc(b1-4)][GlcNAc(b1-2)Man(a1-6)]Man(b1-4)GlcNAc(b1-4)GlcNAc
# Outline: as §1
# [9] = target: GlcNAc(b1-2)[GlcNAc(b1-4)]Man(a1-3)[GlcNAc(b1-4)][GlcNAc(b1-2)[GlcNAc(b1-6)]Man(a1-6)]Man(b1-4)GlcNAc(b1-4)GlcNAc
# Outline: as §1
# [10] = target: GlcNAc(b1-2)[GlcNAc(b1-4)]Man(a1-3)[GlcNAc(b1-4)][GlcNAc(b1-2)[GlcNAc(b1-6)]Man(a1-6)]Man(b1-4)GlcNAc(b1-4)[Fuc(a1-6)]GlcNAc
# Outline: as §1
# [11] = target: GlcNAc(b1-2)[GlcNAc(b1-6)]Man(a1-6)[GlcNAc(b1-2)Man(a1-3)]Man(b1-4)GlcNAc(b1-4)GlcNAc
# Outline: as §1
# [12] = target: GlcNAc(b1-2)[GlcNAc(b1-6)]Man(a1-6)[GlcNAc(b1-2)Man(a1-3)]Man(b1-4)GlcNAc(b1-4)[Fuc(a1-6)]GlcNAc
# Outline: as §1
# [13] = target: GlcNAc(b1-2)[GlcNAc(b1-6)]Man(a1-6)[GlcNAc(b1-4)][GlcNAc(b1-2)Man(a1-3)]Man(b1-4)GlcNAc(b1-4)GlcNAc
# Outline: as §1
# GlcNAc(b1-3)Fuc = target: GlcNAc(b1-3)Fuc
# Outline: as §1
# GlcNAc(b1-3)Gal = target: GlcNAc(b1-3)Gal
# Outline: as §1
# [14] = target: GlcNAc(b1-3)Gal(b1-3)GalNAc
# Outline: as §1
# GlcNAc(b1-3)Gal(b1-4)Glc = target: GlcNAc(b1-3)Gal(b1-4)Glc
# Outline: as §1
# [15] = target: GlcNAc(b1-3)Gal(b1-4)GlcNAc
# Outline: as §1
# [16] = target: GlcNAc(b1-3)Gal(b1-4)GlcNAc(b1-2)Man(a1-3)[GlcNAc(b1-3)Gal(b1-4)GlcNAc(b1-2)Man(a1-6)]Man(b1-4)GlcNAc(b1-4)GlcNAc
# Outline: as §1
# [17] = target: GlcNAc(b1-3)Gal(b1-4)GlcNAc(b1-2)Man(a1-3)[GlcNAc(b1-3)Gal(b1-4)GlcNAc(b1-2)Man(a1-6)]Man(b1-4)GlcNAc(b1-4)[Fuc(a1-6)]GlcNAc
# Outline: as §1
# [18] = target: GlcNAc(b1-3)Gal(b1-4)GlcNAc(b1-2)[GlcNAc(b1-3)Gal(b1-4)GlcNAc(b1-6)]Man(a1-6)[GlcNAc(b1-3)Gal(b1-4)GlcNAc(b1-2)Man(a1-3)]Man(b1-4)GlcNAc(b1-4)GlcNAc
# Outline: as §1
# [19] = target: GlcNAc(b1-3)Gal(b1-4)GlcNAc(b1-3)Gal(b1-4)GlcNAc
# Outline: as §1
# [20] = target: GlcNAc(b1-3)Gal(b1-4)GlcNAc(b1-3)Gal(b1-4)GlcNAc(b1-2)Man(a1-3)[GlcNAc(b1-3)Gal(b1-4)GlcNAc(b1-3)Gal(b1-4)GlcNAc(b1-2)Man(a1-6)]Man(b1-4)GlcNAc(b1-4)GlcNAc
# Outline: as §1
# [21] = target: GlcNAc(b1-3)Gal(b1-4)GlcNAc(b1-3)Gal(b1-4)GlcNAc(b1-2)Man(a1-3)[GlcNAc(b1-3)Gal(b1-4)GlcNAc(b1-3)Gal(b1-4)GlcNAc(b1-2)Man(a1-6)]Man(b1-4)GlcNAc(b1-4)[Fuc(a1-6)]GlcNAc
# Outline: as §1
# [22] = target: GlcNAc(b1-3)Gal(b1-4)GlcNAc(b1-3)Gal(b1-4)GlcNAc(b1-2)[GlcNAc(b1-3)Gal(b1-4)GlcNAc(b1-3)Gal(b1-4)GlcNAc(b1-6)]Man(a1-6)[GlcNAc(b1-3)Gal(b1-4)GlcNAc(b1-3)Gal(b1-4)GlcNAc(b1-2)Man(a1-3)]Man(b1-4)GlcNAc(b1-4)[Fuc(a1-6)]GlcNAc
# Outline: as §1
# [23] = target: GlcNAc(b1-3)Gal(b1-4)GlcNAc(b1-3)Gal(b1-4)GlcNAc(b1-3)Gal(b1-4)GlcNAc(b1-2)Man(a1-3)[GlcNAc(b1-3)Gal(b1-4)GlcNAc(b1-3)Gal(b1-4)GlcNAc(b1-3)Gal(b1-4)GlcNAc(b1-2)Man(a1-6)]Man(b1-4)GlcNAc(b1-4)GlcNAc
# Outline: as §1
# [24] = target: GlcNAc(b1-3)Gal(b1-4)GlcNAc(b1-3)Gal(b1-4)GlcNAc(b1-3)Gal(b1-4)GlcNAc(b1-2)Man(a1-3)[GlcNAc(b1-3)Gal(b1-4)GlcNAc(b1-3)Gal(b1-4)GlcNAc(b1-3)Gal(b1-4)GlcNAc(b1-2)Man(a1-6)]Man(b1-4)GlcNAc(b1-4)[Fuc(a1-6)]GlcNAc
# Outline: as §1
# [25] = target: GlcNAc(b1-3)Gal(b1-4)GlcNAc(b1-3)Gal(b1-4)GlcNAc(b1-3)Gal(b1-4)GlcNAc(b1-2)[GlcNAc(b1-3)Gal(b1-4)GlcNAc(b1-3)Gal(b1-4)GlcNAc(b1-3)Gal(b1-4)GlcNAc(b1-6)]Man(a1-6)[GlcNAc(b1-3)Gal(b1-4)GlcNAc(b1-3)Gal(b1-4)GlcNAc(b1-3)Gal(b1-4)GlcNAc(b1-2)Man(a1-3)]Man(b1-4)GlcNAc(b1-4)[Fuc(a1-6)]GlcNAc
# Outline: as §1
# [26] = target: GlcNAc(b1-3)Gal(b1-4)GlcNAc(b1-3)Gal(b1-4)GlcNAc(b1-3)Gal(b1-4)GlcNAc(b1-3)Gal(b1-4)GlcNAc(b1-2)Man(a1-3)[GlcNAc(b1-3)Gal(b1-4)GlcNAc(b1-3)Gal(b1-4)GlcNAc(b1-3)Gal(b1-4)GlcNAc(b1-3)Gal(b1-4)GlcNAc(b1-2)Man(a1-6)]Man(b1-4)GlcNAc(b1-4)GlcNAc
# Outline: as §1
# [27] = target: GlcNAc(b1-3)Gal(b1-4)GlcNAc(b1-3)Gal(b1-4)GlcNAc(b1-3)Gal(b1-4)GlcNAc(b1-3)Gal(b1-4)GlcNAc(b1-2)Man(a1-3)[GlcNAc(b1-3)Gal(b1-4)GlcNAc(b1-3)Gal(b1-4)GlcNAc(b1-3)Gal(b1-4)GlcNAc(b1-3)Gal(b1-4)GlcNAc(b1-2)Man(a1-6)]Man(b1-4)GlcNAc(b1-4)[Fuc(a1-6)]GlcNAc
# Outline: as §1
# [28] = target: GlcNAc(b1-3)Gal(b1-4)GlcNAc(b1-3)Gal(b1-4)GlcNAc(b1-3)Gal(b1-4)GlcNAc(b1-3)Gal(b1-4)GlcNAc(b1-2)[GlcNAc(b1-3)Gal(b1-4)GlcNAc(b1-3)Gal(b1-4)GlcNAc(b1-3)Gal(b1-4)GlcNAc(b1-3)Gal(b1-4)GlcNAc(b1-6)]Man(a1-6)[GlcNAc(b1-3)Gal(b1-4)GlcNAc(b1-3)Gal(b1-4)GlcNAc(b1-3)Gal(b1-4)GlcNAc(b1-3)Gal(b1-4)GlcNAc(b1-2)Man(a1-3)]Man(b1-4)GlcNAc(b1-4)[Fuc(a1-6)]GlcNAc
# Outline: as §1
# [29] = target: GlcNAc(b1-3)Gal(b1-4)GlcNAc(b1-3)Gal(b1-4)GlcNAc(b1-3)GalNAc
# Outline: as §1
# [30] = target: GlcNAc(b1-3)Gal(b1-4)GlcNAc(b1-3)GalNAc
# Outline: as §1
# [31] = target: GlcNAc(b1-3)Gal(b1-4)GlcNAc(b1-3)[GlcNAc(b1-3)Gal(b1-4)GlcNAc(b1-3)]GalNAc
# Outline: as §1
# [32] = target: GlcNAc(b1-3)Gal(b1-4)GlcNAc(b1-6)[Gal(b1-3)]GalNAc
# Outline: as §1
# [33] = target: GlcNAc(b1-3)Gal(b1-4)GlcNAc(b1-6)[GlcNAc(b1-3)Gal(b1-3)]GalNAc
# Outline: as §1
# [34] = target: GlcNAc(b1-3)Gal(b1-4)GlcNAc(b1-6)[GlcNAc(b1-3)]Gal(b1-4)GlcNAc
# Outline: as §1
binder,measurement,setting,value
B1,glycan array binding signal (z-score),[1],-0.278
same,glycan array binding signal (z-score),[2],-0.221
same,glycan array binding signal (z-score),[3],-0.263
same,glycan array binding signal (z-score),[4],0.625
same,glycan array binding signal (z-score),[5],-0.262
same,glycan array binding signal (z-score),[6],-0.278
same,glycan array binding signal (z-score),[7],-0.285
same,glycan array binding signal (z-score),[8],-0.231
same,glycan array binding signal (z-score),[9],-0.279
same,glycan array binding signal (z-score),[10],-0.27
same,glycan array binding signal (z-score),[11],-0.275
same,glycan array binding signal (z-score),[12],-0.268
same,glycan array binding signal (z-score),[13],-0.274
same,glycan array binding signal (z-score),GlcNAc(b1-3)Fuc,-0.235
same,glycan array binding signal (z-score),GlcNAc(b1-3)Gal,-0.198
same,glycan array binding signal (z-score),[14],-0.277
same,glycan array binding signal (z-score),GlcNAc(b1-3)Gal(b1-4)Glc,-0.272
same,glycan array binding signal (z-score),[15],-0.232
same,glycan array binding signal (z-score),[16],-0.275
same,glycan array binding signal (z-score),[17],-0.179
same,glycan array binding signal (z-score),[18],-0.057
same,glycan array binding signal (z-score),[19],-0.26
same,glycan array binding signal (z-score),[20],1.24
same,glycan array binding signal (z-score),[21],1.7
same,glycan array binding signal (z-score),[22],5.44
same,glycan array binding signal (z-score),[23],4.25
same,glycan array binding signal (z-score),[24],3.12
same,glycan array binding signal (z-score),[25],4.84
same,glycan array binding signal (z-score),[26],7.01
same,glycan array binding signal (z-score),[27],6.24
same,glycan array binding signal (z-score),[28],6.71
same,glycan array binding signal (z-score),[29],-0.242
same,glycan array binding signal (z-score),[30],-0.257
same,glycan array binding signal (z-score),[31],-0.229
same,glycan array binding signal (z-score),[32],-0.251
same,glycan array binding signal (z-score),[33],-0.252
same,glycan array binding signal (z-score),[34],-0.362

# — the supplement of paper PMC8728848
